# In article PMC12040169 (PLOS Biology, 2025):
# The other results are listed elsewhere or left out.
# Test system: T1, C. trachomatis L2/434/Bu expressing GFP (CTL2-GFP)
# T1 construct: L2/434/Bu GFP intracellular growth in HeLa cells
# Parameters: species or system HeLa; C. trachomatis total inclusion area by high-content imaging, normalised to DMSO
# Conditions: total inclusion area; 28.5 h, 10 µM; inhibitor
# Outline: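 High-content images of fixed, Hoechst-stained infected cultures supply inclusion area and count (growth) plus nuclei number (viability), complementing bulk GFP/resorufin fluorescence. MIC determination is unchanged from the primary assay.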
row,SMILES,% of control remaining
1,CN(C)CCCN(Cc1ccc2ncccc2c1)Cc1ccco1 [CBK283197],90.3206
2,CCN1CCN(Cc2nc3c([nH]2)c(=O)n(C)c(=O)n3C)CC1 [CBK269413],89.3638
3,O=C(NC(=O)c1ccc2ccccc2c1)Nc1ccc(Br)cc1 [CBK261735],85.7524
4,O=C(NCC1CCCO1)c1ccc(NC(=O)C2C3C=CC(C3)C2C(=O)O)cc1 (stereo not drawn) [CBK266317],107.042
5,C(=N\c1ccc2c(c1)OCCOCCOc1cc(/N=C/c3ccccc3)ccc1OCCOCCO2)/c1ccccc1 [CBK261388],97.6923
6,Cc1csc2c(C3CCN(C(=O)c4cc[nH]n4)CC3)nc(C)n12 [CBK285245],106.038
7,O=C(CN1CCC(c2ccccc2F)CC1)N1CCCCC1 [CBK283577],88.8797
8,Cc1nn(CC(=O)N2CCCC(C)C2)c(=O)c2cc3occc3n12 (stereo not drawn) [CBK283623],80.3778
9,Cc1nn(CC(=O)N2CCCCCC2)c(=O)c2cc3ccsc3n12 [CBK284060],85.8088
10,CCN(CC)C(=O)CN(CCc1ccc(OC)c(OC)c1)C(=O)NCCCSC [CBK158725],96.125
11,Clc1ccc(Nc2nnns2)cc1Cl [CBK005211],88.36
12,Cc1cc(C(=O)NCC[S+](C)[O-])c(-n2cccc2)s1 (stereo not drawn) [CBK283305],95.3884
13,Cc1cc(O)n(-c2cc(-c3ccccc3)nc(-c3ccccc3)n2)n1 [CBK262014],109.32
14,CCc1nc2ccc(C(=O)NCCc3c[nH]c4ccccc34)cn2c1N(C)Cc1ccncc1 [CBK145636],95.7513
15,N=C(N)NS(=O)(=O)c1ccc(N/C=C\C(=O)c2ccncc2)cc1 [CBK264185],113.021
16,COc1cccc(CSc2ccc(CN3CCOCC3)cc2F)c1 [CBK174976],72.5156
17,COCCCN1C(=O)c2[nH]nc(-c3cc(C)c(C)cc3O)c2C1c1ccc(SC)cc1 (stereo not drawn) [CBK268884],84.1139
18,O=C(CCSCc1nc2sc3c(c2c(=O)[nH]1)CCC3)N1CCC1 [CBK304536],92.3409
19,CC(C)C(=O)N1CCC[C@@H](Cn2nc(-c3cccs3)ccc2=O)C1 [CBK282317],101.538
20,O=C(NC1CCS(=O)(=O)C1)c1cc2ccc(OC(F)(F)F)cc2[nH]1 (stereo not drawn) [CBK305754],79.3107
21,Cc1ccc(NC(=O)C2CC=CCC2C(=O)O)cc1NC(=O)c1ccc(Cl)cc1 (stereo not drawn) [CBK268980],92.7492

row,SMILES,% of control remaining
1,Cc1ccc(C)c(C2C(C(=O)c3ccccc3Cl)=C(O)C(=O)N2c2ccc(CC(=O)O)cc2)c1 (stereo not drawn) [CBK297723],69.8636
2,O=C(CSc1ncn[nH]1)Nc1ncccn1 [CBK058488],69.1952
3,CCn1c(SCC(=O)O)nnc1-c1ccco1 [CBK068633],102.227
4,CCOC(=O)C(CNS(=O)(=O)c1ccc(F)cc1C)Cc1ccccc1 (stereo not drawn) [CBK305427],86.9905
5,Cc1ccc(NC(=S)NCCc2ccc(S(N)(=O)=O)cc2)c(C)c1 [CBK264870],109.764
6,CN(CC(=O)Nn1cnnc1)S(=O)(=O)c1ccc(Br)cc1 [CBK268597],93.3504
7,CC(=O)Nc1cccc(-c2nccnc2NS(C)(=O)=O)c1 [CBK050740],103.926
8,O=C(Cn1cccc2cc(C3CCCNC3)nc1-2)N1CCCCCC1 (stereo not drawn) [CBK285088],110.221
9,CCOC(=O)C1CCCN(C(=O)CCn2c(=O)oc3cc(Cl)ccc32)C1 (stereo not drawn) [CBK304516],71.9784
10,Cc1nc2n(n1)C(C(=O)Nc1ccc(C)c(C)c1)CC(=O)N2 (stereo not drawn) [CBK288223],92.6834
11,Cc1nc(C)n(CCCNc2cc(C(C)C)nc3ccnn23)n1 [CBK307497],19.1271
12,O=C(CCN1CCc2ccccc2C1)Nc1ccccc1F [CBK264202],103.04
13,O=C(NCc1ccc(C(F)(F)F)cc1)[C@@H]1Cc2[nH]cnc2CN1C1CCOCC1 [CBK288981],112.693
14,Cc1occc1-c1nnc(SC2CCCCN(C(=O)c3ccc(Cl)cc3)C2=O)n1C (stereo not drawn) [CBK296990],111.329
15,Cc1ncsc1C(=O)N1CCNCC1c1cccc(F)c1 (stereo not drawn) [CBK305463],80.3741
16,O=C(O)/C(Cl)=C(\Cl)C(=O)N1CCC2(CC1)OCCc1c2[nH]c2ccccc12 [CBK047035],101.835
17,CS(=O)(=O)c1ccc(-c2ccc3ccc(=O)[nH]c3n2)cc1 [CBK073719],106.031
18,Cc1cc(CNS(=O)(=O)c2cccc3nonc23)nn1C [CBK062157],90.8401
19,COC(=O)c1sc(N2CCOCC2)c(C#N)c1N [CBK006430],60.0142
20,COc1cc(C2NC(=O)NC(O)(C(F)(F)F)C2C(=O)c2ccccc2)ccc1OCc1ccccc1 (stereo not drawn) [CBK264957],100.725
21,C=CCNC(=O)CSc1nc(O)cc(=O)[nH]1 [CBK073298],89.8918

row,SMILES,% of control remaining
1,O=C(O)c1cccc(Nc2nc(-c3ccccc3)nc3ccccc23)c1 [CBK263941C],109.924
2,O=C(O)c1cccc(-c2ccc(/C=C3\SC(=S)N(Cc4ccco4)C3=O)o2)c1 [CBK265726],77.7192
3,O=C(c1ccoc1)N1CCN(S(=O)(=O)c2ccc3c(c2)Cc2cc(S(=O)(=O)N4CCN(C(=O)c5ccco5)CC4)ccc2-3)CC1 [CBK262299],98.3315
4,Cc1ccc2cc(CN(Cc3cccs3)C(=O)NCc3ccccc3)c(=O)[nH]c2c1C [CBK068496],90.1518
5,O=C(Cn1cc(-c2ccc(CN3CCCCC3)cc2)nn1)NCc1ccc(Cl)cc1Cl [CBK167689],99.88
6,CS(=O)(=O)N1CC2(CCN(CC(=O)c3ccsc3)CC2)c2ccccc21 [CBK144595T],104.634
7,CC(C)[C@H](CO)Nc1cncc(-c2ccc(F)cc2F)n1 [CBK065883],97.6467
8,Cn1c(-c2ccccc2)cnc1NC(=O)C1CN(S(=O)(=O)c2ccc(F)cc2)C1 [CBK285945],98.7133
9,COc1ccc([C@H]2CN(C(=O)c3ccccn3)[C@@H]3CCCN(C(C)=O)[C@H]23)cc1 [CBK285523],95.2071
10,O=C(CN1C2CCC1CC(O)(c1ccco1)C2)NCc1ccccc1 (stereo not drawn) [CBK284105],73.2017
11,CC(CCc1ccccc1)N(C)CCN(C)C (stereo not drawn) [CBK261933],58.1643
12,Cc1cccc(C)c1N(CC(=O)O)S(C)(=O)=O [CBK262329],118.924
13,CNC(=O)C1(Cc2cccc(-c3cccs3)c2)CCN(C(=O)COc2ccccc2)CC1 [CBK285732],79.7858
14,CC(CNCC1CCCO1)COc1cccc(Cl)c1 (stereo not drawn) [CBK058789],40.073
15,O=C(c1ccno1)N1Cc2ccccc2C1 [CBK200327],66.9863
16,O=C(Nc1nccs1)C1CCCN(C(=O)c2ccco2)C1 (stereo not drawn) [CBK296725],123.223
17,CCCS(=O)(=O)Nc1cccc2[nH]ccc12 [CBK159488],99.5358
18,COCCNc1nccnc1-c1ccccc1 [CBK088555],83.7135
19,O=S(=O)(Nc1ccc(-c2nnn[nH]2)cc1)c1c(F)cccc1F [CBK154734],103.715
20,CCNC(=O)CN(C)S(=O)(=O)c1cc(Cl)ccc1Cl [CBK091853],91.3122
21,COc1cccc(-c2cc(C(=O)Nc3nnn[nH]3)c3ccccc3n2)c1 [CBK262640],106.037

row,SMILES,% of control remaining
1,O=c1c2[nH]cc(-c3ccccc3)c2ncn1CCc1ccccc1 [CBK288025],55.0564
2,O=C(COc1cccnc1)N1CCN(c2ncccn2)CC1 [CBK144521],45.5208
3,O=C(O)C(c1c[nH]c2cc(F)ccc12)N1CCN(CC(=O)N2CCOCC2)CC1 (stereo not drawn) [CBK286825],99.5266
4,CCOC(=O)c1cnc2ccc(F)cc2c1N1CCN(C)CC1 [CBK304376],4.76
5,CCNc1cc2ccccc2c(-c2cccc(C(F)(F)F)c2)n1 [CBK085772],71.3303
6,COc1ccc(CCCC(=O)Nc2c(C)nn(C)c2N2CCNCC2)cc1OC [CBK050252T],86.2255
7,COc1cccc(C2(NC(=O)CCn3cccn3)CCCC2)c1 [CBK283660],93.8209
8,O=C(c1csnn1)N1CCN(CCc2ccccc2)CC1 [CBK200228],90.8077
9,Cn1c(N2CC[C@H](O)C2)nc2cc(C(=O)NCCn3cccc3)ccc21 [CBK307480],55.7449
10,COc1ccc(Br)c(C(=O)N(C)Cc2cnn(C)c2)c1 [CBK305142],39.8775
11,CCCN1CCC(=NNC(=O)c2c[nH]c3ccccc23)CC1 [CBK262597],96.986
12,Cc1cc(OCC(O)CN(Cc2ccccc2)C(C)(C)C)ccc1[N+](=O)[O-] (stereo not drawn) [CBK086757],105.774
13,c1ccc2oc(CN3Cc4nc[nH]c4C[C@H]3c3nc(-c4cnccn4)no3)cc2c1 [CBK288954],103.445
14,COC(=O)c1c(NC(=O)C(=O)NCc2cccnc2)sc2c1CCCC2 [CBK269170],103.386
15,O=C1COCC(=O)N1c1ccc(I)cc1 [CBK086499],52.4287
16,CN1CCN(c2nc(-c3ccoc3)cn3ccnc23)CC1 [CBK066645],91.3388
17,Cc1ccccc1SCC(C)C(=O)O (stereo not drawn) [CBK012292],59.2178
18,COc1ccccc1-c1ccc(NC(=O)C2(c3cccc(F)c3)CCOCC2)cc1 [CBK285747],94.6821
